Screen size: about 130,000 compounds; about 1,900 (1.5%) were called active. Inconclusive means that the source gave no clear call. Such entries were picked first, then a sample of the others. Calls come from the whole dose curve; as a rule, active = well fitted cell-killing curve with a large enough effect; inconclusive = small, poorly fitted or top-dose-only effect; inactive = no such curve, though single readings can be large or run the other way. Potencies of inconclusive entries are doubtful fits and often do not repeat.
Assay: qHTS Screen for Compounds that Selectively Target Cancer Cells with p53 Mutations: Cytotoxicity of p53ts Cells at the Nonpermissive Temperature; note: nearly all actives have a fitted effect of over 55% in size
Conditions: H1299-p53A138V viability at 39C, ATP luminescence, 24 h; activity change, negative = cell killing: at 46.1 µM (top of the series)
With CC(C)c1ccc(NS(=O)(=O)c2ccc3[nH]cc(C(=O)NC4CCCCC4)c(=O)c3c2)cc1 the Potency was inconclusive: 31.6 µM [cytotoxic, single point].
With CC1=C(C(=O)Nc2ccc(C)cc2C)C(c2ccc(C(C)C)cc2)n2nc(C(F)(F)F)nc2N1 (stereo not drawn) the Potency was inconclusive: 10 µM [cytotoxic, partial curve].
For O=C(NCc1ccccc1Cl)C1CCCN(c2nc3ccccc3n3cccc23)C1 (stereo not drawn), the Potency was inconclusive: 31.6 µM [cytotoxic, single point].
For COc1ccc(CCNC(=O)c2ccc3c(c2)nc2n3CCOC2)cc1OC, the Potency was inconclusive: 0.316 µM [cytotoxic, full curve, poor fit].
For COc1ccc(O)c(C(=O)CC(=O)c2ccc(F)cc2)c1, the Potency was active: 6.31 µM.
For CCCCN(C)S(=O)(=O)c1ccc(C(=O)Nc2nnc(CSC)o2)cc1, the Potency was active: 10 µM.
For CCCCNC(=O)CSc1c2c(nc3ccc(Cl)cc13)CCCC2, the Potency was inconclusive: 15.8 µM [cytotoxic, single point].
With O=C(CSc1nc2ccccc2n1Cc1cccc(Cl)c1)N1CCN(c2ccc(F)cc2)CC1 the Potency was inconclusive: 12.6 µM [cytotoxic, partial curve, poor fit].
With O=C(Nc1ccc(Cl)cc1)c1ccc2c(c1)N(Cc1ccccc1)C(=O)c1ccccc1S2(=O)=O the Potency was inconclusive: 0.158 µM [cytotoxic, full curve, poor fit].
For CC1=Nc2cc(C(=O)NC3CCCC3)ccc2Sc2ccc(Br)cc21, the Potency was inconclusive: 20 µM [cytotoxic, single point].
In the case of COc1cccc(Cn2c(=O)c(-c3ccc(Cl)cc3)nc3cncnc32)c1, the Potency is reported as inconclusive: 31.6 µM [cytotoxic, single point].
For COc1ccccc1C(=O)NCC1(N2CCN(C)CC2)CCCCC1, the Potency was inconclusive: 0.126 µM [cytotoxic, full curve, poor fit].
For CN(C)c1ccc(-c2nccc(NCc3cccs3)n2)cc1, the Potency was active: 5.01 µM.
With CSc1cccc(Nc2cc(C(=O)NCCCN(Cc3ccccc3)C(C)C)c3ccccc3n2)c1 the Potency was active: 15.8 µM.
In the case of Cc1ccc(CCNc2ncnc3onc(C)c23)cc1, the Potency is reported as inconclusive: 31.6 µM [cytotoxic, partial curve, poor fit].
In the case of CC(NC(=O)c1sc2ncccc2c1-n1cccc1)c1ccccc1 (stereo not drawn), the Potency is reported as inconclusive: 0.01 µM [cytotoxic, full curve, poor fit].
In the case of COc1ccc2nc(N3CCN(C(=O)C4CC4)CC3)sc2c1, the Potency is reported as inconclusive: 10 µM [cytotoxic, partial curve, poor fit].
For c1ccc(CSc2ccc(-c3ccco3)nn2)cc1, the Potency was inconclusive: 15.8 µM [cytotoxic, single point].
For CCN(CC)[C@@H](C)CN1c2ccccc2Sc2ccccc21, the Potency was “inactive”.
With CCOc1ccc(C2C(C#N)=C(N)SC(N)=C2C#N)cc1OCC the Potency was “inactive”.
For Cc1c(C(=O)NCc2ccccc2Cl)cccc1-n1cnc2cccnc21, the Potency was inconclusive: 0.316 µM [cytotoxic, full curve, poor fit].
In the case of Cc1ccc(S(=O)(=O)CCC(=O)c2ccc(O)cc2O)cc1, the Potency is reported as inconclusive: 31.6 µM [cytotoxic, single point].
With O=c1cc(-c2c(F)c(F)c(F)c(F)c2F)oc2c(F)c(F)c(F)c(F)c12 the Potency was inconclusive: 31.6 µM [cytotoxic, single point].
With CC(C)(C)C1CCC2(CC1)C(C#N)=C(SCC(=O)NC1CCCCC1)NC(=O)C2C#N (stereo not drawn) the Potency was “inactive”.
With COc1ccc2c(c1)c1c(c(=O)n(-c3ccc(F)c(Cl)c3)c(=O)n1Cc1ccccc1F)n2C the Potency was “inactive”.
In the case of Cc1cccc(CCn2c(=O)c3ccccc3n(Cc3ccccc3C)c2=O)c1, the Potency is reported as “inactive”.
For CCOc1ccccc1NC(=O)N1CC(C)Oc2ccc(Cl)cc21 (stereo not drawn), the activity change, negative = cell killing was inconclusive: -37.4% [cytotoxic].
With COc1ccc2[nH]c(=O)c(CN(Cc3nnnn3Cc3ccc(F)cc3)CC3CCCO3)cc2c1 (stereo not drawn) the Potency was inconclusive: 31.6 µM [cytotoxic, single point].
For CC(C)(C)c1ccc(C(=O)NC2=NC(c3cccc(F)c3)CC(=O)N2)cc1 (stereo not drawn), the Potency was inconclusive: 7.94 µM [cytotoxic, partial curve].
For COc1ccc(Cl)cc1NC(=O)C(=O)NCc1ccc(Cl)cc1, the Potency was “inactive”.
In the case of c1ccc(C(c2ccccc2)N2CCCC3(CCNCC3)C2)cc1, the Potency is reported as inconclusive: 31.6 µM [cytotoxic, single point].
In the case of CC(C)Cc1nn2cc(-c3cccc(Br)c3)nc2s1, the Potency is reported as active: 10 µM.
In the case of CCOc1ccc(N2CC(c3nc4ccccc4n3CCOc3ccc(OC)cc3)CC2=O)cc1 (stereo not drawn), the Potency is reported as inconclusive: 15.8 µM [cytotoxic, partial curve].
With CCOc1ccc2nc(N3CCCC(C(=O)NCCc4ccc(OC)cc4OC)C3)sc2c1 (stereo not drawn) the Potency was inconclusive: 15.8 µM [cytotoxic, partial curve].
With O=C(Nc1ccc(F)c(Cl)c1)c1cc(S(=O)(=O)NCc2ccc3c(c2)OCO3)ccc1F the Potency was inconclusive: 35.5 µM [cytotoxic, single point].
In the case of COc1ccc(-c2nc3sc(CCNC(=O)C(C)(C)C)c(C)n3n2)cc1, the Potency is reported as inconclusive: 10 µM [cytotoxic, partial curve].
In the case of O=C1c2ccccc2C(=O)C1c1ccncc1, the Potency is reported as active: 3.16 µM.
In the case of COCC(C)NC(=O)c1noc2c1CCc1cc(OC)ccc1-2 (stereo not drawn), the Potency is reported as inconclusive: 12.6 µM [cytotoxic, single point].
With COc1ccc(/C=C/C(=O)Nc2cc(-c3nc4ccccc4o3)ccc2OC)cc1 the Potency was inconclusive: 15.8 µM [cytotoxic, single point].
In the case of O=C(O)/C=C\C=C/c1ccc2c(c1)OCO2, the activity change, negative = cell killing is reported as inactive: 6.43% [at 9.22 µM].
In the case of CC(=O)c1sc(Nc2nc3ccc(F)cc3s2)nc1C, the Potency is reported as inconclusive: 31.6 µM [cytotoxic, single point].
With COc1ccc(-c2cc(C(=O)NC(C)C)no2)cc1 the Potency was inconclusive: 15.8 µM [cytotoxic, partial curve].
With CN(C(=O)c1ccccc1)c1nc2ccccc2s1 the Potency was active: 12.6 µM.
For Cn1c(COc2ccccc2C(C)(C)C)nc2ccccc21, the Potency was inconclusive: 31.6 µM [cytotoxic, single point].
In the case of COCCCNC(=O)c1c(NC(=O)c2nc(S(C)(=O)=O)ncc2Cl)sc2c1CCCC2, the Potency is reported as inconclusive: 2.51 µM [cytotoxic, partial curve].
In the case of N#CC(=C1CCCC1)c1nc(-c2ccccc2O)cs1, the Potency is reported as active: 12.6 µM.
In the case of CCOc1ccccc1NC(=O)CN1C(=O)CC(c2ccco2)Sc2ccccc21 (stereo not drawn), the Potency is reported as inconclusive: 25.1 µM [cytotoxic, partial curve].
In the case of Cc1ccc(NC(=O)c2ncn(-c3ccccc3)n2)cc1Cl, the Potency is reported as inconclusive: 25.1 µM [cytotoxic, single point].
In the case of COc1ccc(NC(=O)c2oc3ccccc3c2NC(=O)c2cc(=O)c3c(C)cc(C)cc3o2)cc1, the Potency is reported as “inactive”.
For CCN(CC)c1ccc(-c2nn3c(-c4ccccc4OC)nnc3s2)cc1, the Potency was inconclusive: 25.1 µM [cytotoxic, single point].
With COc1ccc(-c2nc(CN3CCC(C(=O)NCCCN4CCN(c5ccccc5F)CC4)CC3)c(C)o2)cc1OC the Potency was inconclusive: 12.6 µM [cytotoxic, single point].
With NC[C@@H]1O[C@H](C23CC4CC(CC(C4)C2)C3)Cc2c1ccc(O)c2O the Potency was active: 20 µM.
For Cc1ccc(C)c(NS(=O)(=O)c2ccc3c4c(cccc24)C(=O)N3)c1, the Potency was inconclusive: 31.6 µM [cytotoxic, single point].
In the case of O=c1c(-c2cc(F)cc(F)c2)nc2cnc(N3CCNCC3)nc2n1-c1ccccc1, the Potency is reported as inconclusive: 15.8 µM [cytotoxic, single point].
In the case of COCCN1C(=O)c2[nH]nc(-c3ccccc3O)c2C1c1ccc(OCc2ccccc2)c(OC)c1 (stereo not drawn), the Potency is reported as inconclusive: 12.6 µM [cytotoxic, partial curve].
In the case of Cn1c(=O)[nH]c(=O)c2[nH]c(N(Cc3ccccc3)Cc3ccccc3)nc21, the Potency is reported as inconclusive: 20 µM [cytotoxic, single point].
With Clc1ccc2oc(-c3ccccn3)nc2c1 the Potency was inconclusive: 10 µM [cytotoxic, partial curve].
For COc1ccccc1Nc1nn2c(=O)c3ccc(C(=O)NCc4cccs4)cc3nc2s1, the Potency was active: 10 µM.
With COc1ccc(N2CCN(C(=O)c3ccc(C)c(NC(=O)c4nsc5ccccc45)c3)CC2)cc1 the Potency was “inactive”.
For COCCNC(=O)NC1(C(F)(F)F)Oc2ccc(Cl)cc2O1 (stereo not drawn), the Potency was inconclusive: 12.6 µM [cytotoxic, partial curve].
In the case of COCc1nnc(NC(=O)c2ccc(S(=O)(=O)N3CCCCCC3)cc2)o1, the Potency is reported as inconclusive: 20 µM [cytotoxic, partial curve].
In the case of COc1cc2c(C=O)c3c4c(cc(OC)c(OC)c4c2cc1OC)CCN3C, the Potency is reported as active: 15.8 µM.
In the case of CCCCN(CC)CCNC(=O)c1cc2c(-c3ccc(Cl)cc3)nn(C)c2s1, the Potency is reported as active: 15.8 µM.
With CCOc1ccc(-c2cc(C(=O)NN3CCN(C)CC3)c3cc(Cl)ccc3n2)cc1 the Potency was “inactive”.
With COc1ccc(OC)c(-c2cc(C(=O)Nc3cccc(Cl)c3C)no2)c1 the Potency was inconclusive: 20 µM [cytotoxic, single point].
For CCc1ccccc1NC(=O)CN1C(=O)CCc2cc(S(=O)(=O)N3CCCCC3)ccc21, the Potency was “inactive”.
With Cc1cc(-c2csc(NC(=O)c3ccc(=O)n(C)n3)n2)c(C)n1CC1CCCO1 (stereo not drawn) the Potency was “inactive”.
For O=C(Nc1ccc(Nc2ccccc2)cc1)c1ccco1, the Potency was inconclusive: 15.8 µM [cytotoxic, single point].
% is set by controls: 0 for no effect and ±100 for the full control effect; potency is the fitted concentration of half-maximal effect; tags give direction and shape of the fitted curve.
